Hit rate of the full screen: of about 310,000 compounds, about 14,000 (4.5%) showed an effect of 50% or more. The effect is printed as a negative number. This is one part of the list.
What follows are compounds tested against human ether-à-go-go-related gene (hERG) potassium channel (human, UniProt Q12809) (assay: primary screen, population patch clamp on CHO cells stably expressing hERG).
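Note: peak tail current of the secondary pulse compared with the same well before compound.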

human ether-à-go-go-related gene (hERG) potassium channel, sequence (Q12809 whole entry, looked up): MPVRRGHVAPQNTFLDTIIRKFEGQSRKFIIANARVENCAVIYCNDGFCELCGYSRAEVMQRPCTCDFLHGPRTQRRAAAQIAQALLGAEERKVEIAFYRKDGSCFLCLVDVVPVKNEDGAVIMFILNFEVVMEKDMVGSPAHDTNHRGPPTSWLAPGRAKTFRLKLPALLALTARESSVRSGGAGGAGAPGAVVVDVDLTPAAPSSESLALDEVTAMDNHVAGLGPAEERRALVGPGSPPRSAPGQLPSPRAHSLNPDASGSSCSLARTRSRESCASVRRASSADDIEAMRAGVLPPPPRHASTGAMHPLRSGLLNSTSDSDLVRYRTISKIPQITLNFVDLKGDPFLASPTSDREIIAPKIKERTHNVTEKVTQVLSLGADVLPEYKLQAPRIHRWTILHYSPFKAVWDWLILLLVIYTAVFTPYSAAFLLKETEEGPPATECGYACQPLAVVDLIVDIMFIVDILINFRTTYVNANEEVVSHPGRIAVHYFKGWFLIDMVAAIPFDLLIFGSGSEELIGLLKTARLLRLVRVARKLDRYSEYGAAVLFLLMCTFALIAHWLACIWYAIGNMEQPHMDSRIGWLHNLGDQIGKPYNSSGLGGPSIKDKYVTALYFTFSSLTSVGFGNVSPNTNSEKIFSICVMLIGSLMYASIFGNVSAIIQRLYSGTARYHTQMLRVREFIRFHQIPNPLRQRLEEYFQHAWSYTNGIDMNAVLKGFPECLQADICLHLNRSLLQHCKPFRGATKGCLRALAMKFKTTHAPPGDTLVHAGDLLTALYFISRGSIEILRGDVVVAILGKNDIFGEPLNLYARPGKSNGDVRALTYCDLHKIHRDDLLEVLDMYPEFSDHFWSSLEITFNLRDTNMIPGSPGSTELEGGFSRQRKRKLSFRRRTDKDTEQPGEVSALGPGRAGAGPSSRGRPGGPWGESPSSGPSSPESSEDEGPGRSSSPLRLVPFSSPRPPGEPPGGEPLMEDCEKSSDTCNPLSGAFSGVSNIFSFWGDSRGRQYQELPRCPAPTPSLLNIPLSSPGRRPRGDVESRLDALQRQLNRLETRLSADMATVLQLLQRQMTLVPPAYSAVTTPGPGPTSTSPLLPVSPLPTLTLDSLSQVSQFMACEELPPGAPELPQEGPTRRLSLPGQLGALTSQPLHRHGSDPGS

Compound	hERG current change (%, negative = inhibition) at 10uM [%]
COc1cc2c(cc1OC)C(c1ccccc1OC(C)C)CC(=O)N2 (centres unmarked)	8.29
c1cncc(-c2nnc3n2N=C(c2cccs2)CS3)c1	-15.8
CC(=O)OCCNc1cc(SCc2ccco2)c2nonc2c1[N+](=O)[O-]	-42.4
Cc1ccc(NC(=O)c2ccc(CN3CC(=O)N4CCCCC4C3=O)cc2)c(C)c1 (centres unmarked)	-2.75
Cc1ccc(NC(=O)Cn2nnc(C(=O)NCc3cccs3)c2N)c(C)c1	16.5
Cc1c(C(=O)NCc2ccccc2CN2CCCC2)oc2c(F)cccc12	-70.5
Cc1ccc(OC(=O)C23CC4CC(CC(C4)C2)C3)c(C)n1	-16.9
O=[N+]([O-])c1cccc(CNc2ccc3c(c2)CCC3)c1	-4.71
O=C1CN(C(=O)c2ccccc2)C(c2ccccc2)c2cc(Cl)ccc2N1 (centres unmarked)	-31
O=C(c1nn2c(C(F)(F)F)cc(-c3cccs3)nc2c1Cl)N1CCCc2ccccc21	16
Oc1[nH]c2ccccc2c1N=NC(=S)N1CCOCC1	7.4
COc1cc(/C=C(\C#N)C(=O)N2CCOCC2)cc(Br)c1O	9.46
Oc1ccc(/C=N/N(c2ccccc2)c2ccccc2)cc1O	11.8
CCCCOc1ccc(OCCCN2CCOCC2)cc1.Cl	-23.1
Cc1cc(C)n(-c2ccc(C(=O)Nc3ccc(C)c(S(=O)(=O)N(C)C)c3)cc2)n1	-13.9
COc1cccc(OC)c1C(=O)NC(=S)N1CCN(c2ccc(C(F)(F)F)cc2[N+](=O)[O-])CC1	-28.7
Cc1ccc(N2C(=O)[C@@H]3C(C(=O)CN4C(=O)c5ccccc5C4=O)=NN[C@@H]3C2=O)c(C)c1	3.93
O=C(NCCCN1CCN(Cc2ccccc2)CC1)C1CCN(S(=O)(=O)N2CCC3(CC2)OCCO3)CC1	1.25
CC(=O)Nc1nc2ccc(C(=O)NCCOC(=O)C3CCCCC3)cc2s1	-14.2
CCN1CCN(c2ccc(S(=O)(=O)N3CCCCC3)cc2NC(=O)c2ccc([N+](=O)[O-])s2)CC1	-80.6
CCc1nnc(NC(=O)Cc2sc(C)nc2-c2ccc(C)cc2)s1	10.8
CN(C)C(CNC(=O)C1CCN(S(=O)(=O)c2cccc(Cl)c2Cl)CC1)c1ccccc1 (centres unmarked)	-34.8

Compound	hERG current change (%, negative = inhibition) at 10uM [%]
Cc1nc(N2CCN(c3ccccn3)CC2)c2c(C)c(C(=O)Nc3ccc(Cl)cc3)sc2n1	-7.01
Cc1c(NC(=O)C(C)OC(=O)c2c3c(nc4ccccc24)CCC3)c(=O)n(-c2ccccc2)n1C (centres unmarked)	-16.7
c1ccc2c(SCc3cn4cccnc4n3)ncnc2c1	-5.05
CCn1c(SCC(=O)N2CCCc3ccccc32)nnc1-c1ccco1	-5.2
Cc1ccc(S(=O)(=O)N2CCCC(C(=O)Nc3cccnc3)C2)cc1 (centres unmarked)	-22.4
CCOc1ccccc1N1CCN(C(=O)c2c(-c3c(F)cccc3Cl)noc2C)CC1	-8.88
Cc1ccc(S(=O)(=O)NN)c(C)c1N1CCCC1=O	8.62
Cc1ccc(S(=O)(=O)N(CC(=O)NCc2ccco2)Cc2ccc(F)cc2)cc1	-67.1
CCOc1cc(/C=C2/C(=O)ON=C2C)cc(Br)c1O	-4.19
CSCC[C@H](NC(=O)c1cccs1)c1nnc2ccccn12	11.7
O=C(CSc1nc2ccccc2c(=O)n1-c1ccc(Cl)cc1)c1ccco1	7.24
CC(C)CCNC(=O)c1onc(CSc2ccccn2)c1C(=O)NCCC(C)C	-1.57
Cc1ccc(S(=O)(=O)N2CCN(Cc3nc4sc(C)c(C)c4c(=O)[nH]3)CC2)cc1	18.2
Nc1c(C(=O)N2CCCC2)sc2nc3c(cc12)CCCCCC3	-19.5
Cc1onc(-c2c(Cl)cccc2Cl)c1NC(=O)NC1CCSC1 (centres unmarked)	13.6
CCOc1cc(C(=S)N2CCOCC2)ccc1OS(=O)(=O)c1ccc(C)cc1	11
CC(=O)c1ccc(Nc2cc(C)nc3c(C)cccc23)cc1	-36.2
CCOC(=O)c1c(C)n(OCc2ccccc2)c2ccc3nonc3c12	6.14
O=C(NC1CCCCC1)C(c1ccccn1)N(C(=O)c1csnn1)C1CC1 (centres unmarked)	20.3
COc1cccc(OC)c1C(=O)NC(=S)Nc1cccc(NC(=O)c2ccco2)c1	28
CCC12C=CCN3CCC4(c5cc(Br)c(OC)cc5N(C)C4C(O)(C(=O)OC)C1OC(C)=O)C32 (centres unmarked)	-3.35
COc1cc(/C=N/N(CCO)C2=NS(=O)(=O)c3ccccc32)cc(OC)c1OC	15.6

Compound	hERG current change (%, negative = inhibition) at 10uM [%]
Cc1ccc(Nc2ccc([N+](=O)[O-])cn2)cc1Cl	4.87
CCOC(=O)c1sc(NC(=O)c2ccc(S(=O)(=O)N3CCOCC3)cc2)cc1C	-19.4
O=S(=O)(NC1CCCCC1)c1ccc(N2CCOCC2)nc1	-2.81
COc1ccc(CCNC(=O)c2nnn(CC(=O)Nc3cccc(F)c3)c2N)cc1OC	5.94
Cc1ccc(C(=O)c2sc3nc4c(cc3c2N)CCC4)cc1	6.76
COc1cccc(-n2c(-c3ccoc3)nc3ccccc3c2=O)c1	-11.3
CCOc1ccc(CCNC(=O)CN2C(=O)NC(CCSC)C2=O)cc1OCC (centres unmarked)	11.3
O=C(c1ccco1)N1CCN(S(=O)(=O)c2ccc3c(c2)CCN3C(=O)C2CCC2)CC1	-24.2
CC(C)OCCCNS(=O)(=O)c1ccc2c(c1)OCCO2	10.8
Cc1cccc(C)c1OCC(O)CN1CCN(c2ccccc2)CC1.Cl (centres unmarked)	-53.1
Cc1nc2cc(NCc3cccs3)ccc2n1C	-27.4
CC(=O)N/C(=C\c1ccccc1Cl)C(=O)O	12.6
Cc1nc2cc(-c3cccc(F)c3)nn2c(C)c1CCC(=O)N1CCN(c2ccccn2)CC1	-13.1
COCCn1c(SCC(=O)Nc2cccc(F)c2)nc2c([nH]c3ccccc32)c1=O	17.6
O=C(Nc1ccc(N2CCOCC2)c(Cl)c1)c1ccc(Cl)cc1	-3.56
Cc1ccc(-n2c(-c3ccccc3)cc(/C=N/NC(=O)CC#N)c2-c2ccccc2)cc1	23.4
CCOC(=O)c1c(C)nn(Cc2ccccc2)c1N	3.83
O=c1[nH]c(=S)n(CCC2=CCCCC2)c(O)c1C=NCc1cccnc1	-0.946
CCOc1ccc(NC(=S)N(CCOC)C2CCN(C(C)C)CC2)cc1	-29
Cc1cccc(NC(=O)CN2C(=S)NC(C)(C)CC2C)c1 (centres unmarked)	7.04
CC(=O)c1cc(F)ccc1OCC(=O)N1CCN(c2ccc(F)cc2)CC1	-58.2
CC(=O)Nc1ccc(S(=O)(=O)N2CCC(c3nnc(-c4ccc(C)cc4)o3)CC2)cc1	-51.1

Compound	hERG current change (%, negative = inhibition) at 10uM [%]
Cc1cc(OCC(=O)N(C)C)c2c(-c3ccccc3)cc(=O)oc2c1	-37.9
COc1ccc2[nH]c3c(=O)n(CCCN4CCOCC4)cnc3c2c1	-3.86
CCCCc1nc(N2CCOCC2)c(C#N)c2c1COC(C)(C)C2	-22.8
COc1ccc(NC(=O)CSc2nc(SC)ns2)c(OC)c1	2.53
O=c1c2ccccc2ncn1Cc1nc2ccccc2s1	-0.504
COc1cc(CNc2ccc(N3CCOCC3)cc2)cc(Br)c1OC	-23.4
Cc1cc(C)cc(NCc2cc(=O)oc3cc(-c4ccccc4)c(O)cc23)c1	8.13
O=C(CCCc1c[nH]c2ccccc12)N1CCCCCC1	-13.9
COc1ccc(OC)c(S(=O)(=O)Nc2ccccc2F)c1	-2.62
CC1=NN(C(N)=S)C(=O)C1N=Nc1ccc(S(N)(=O)=O)cc1 (centres unmarked)	17.3
Cc1cc(C)n2nc(SCc3nnc(-c4ccccc4Br)o3)nc2n1	-16.5
COc1ccc(NC(=O)c2sc3nc(C)nc(N4CCN(c5ccccn5)CC4)c3c2C)c(OC)c1	-1.79
CCN(CC)CCCNC(=O)c1cc(-c2ccc(Cl)cc2)on1	-63.4
O=C(Nc1ccc(Nc2ccccc2)cc1)N1CCOCC1	-11
CCN(CC)S(=O)(=O)c1ccc(Cl)c(NC(=O)COC(=O)c2c(C)noc2C)c1	3.14
O=C(/C=C/c1ccccc1)Nn1c(-c2cccs2)nc2ccccc2c1=O	-3.44
O=C(Oc1ccc2ccc(O)cc2c1)c1ccccc1Cl	19.8
COc1ccc(C2=NS(=O)(=O)N(C)C(C(=O)N3CCc4ccccc4C3)=C2)cc1OC	-3.31
CN(C)S(=O)(=O)c1ccc(N2CCCC2)c(C(=O)NCc2ccccc2)c1	-10
CN(Cc1cn[nH]c1-c1cc2ccccc2o1)CC1CCOCC1	-66.4

— publication PMC4336329 (PLoS ONE, 2015)
